Sequences with one replicate were seen in a single cluster, so their values are uncertain.

This data set relates to ATP. The experiment in a line: switch fluorescence ratio, 500 uM ATP over buffer (Cy3 cluster intensity, sum of 5 cycles each) (fold (ratio)); higher = stronger signal-on switching upon ATP binding; sequences stand for … in TCGTCGGCAGCGTCAGATGTGTATAAGAGACAGTTTTTTTTTTTTTTTTTTTTTTTTT…TC. The note with it: aptamer strand: ATP DNA aptamer (quencher-CACCTGGGGGAGTATTGCGGAGGAAGG + anchor), 100 nM annealed; ATP concentration: 500 uM; one replicate. In a few lines: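 Exposure to 500 uM ATP lasted 15 min at 22 °C before imaging, and a selection-buffer image was taken beforehand, for Cy3-labelled switching-strand clusters on a modified Illumina MiSeq flow-cell annealed to 100 nM quencher-labelled ATP aptamer. Five buffer/ATP cycles were run with NaOH stripping and re-annealing between them. The fluorescence ratio per cluster is summed target-cycle over summed buffer-cycle Cy3 intensity, averaged per switch-domain sequence. Clusters outside 100-1000 RFU were excluded.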

Regarding CGCGAATGAT, the switch fluorescence ratio was found to be 1.01.
Next, TAATCTGAAG: 0.963; AACTGTTCGG: 1.01.
Next, CACTTGGACG: 1.04; CTCCTCGCCG: 1.07; ATTGTTCTAT: 1.01.
The value for GTGGAGTGCG was 0.967; that for AGCGCAGACC was 1.27; that for TCTCTGTGGC was 1.17.
For GATTGCATTG, the switch fluorescence ratio came to 0.958.
Next, TAGTGGTAT: 0.974; TTCAGGGGCC: 1.02; GCGGTGTGGA: 0.987.
The value for TTACTGAAGT was 1.19.
Next, TAGGAGATCT: 0.959; GTGATAGTCG: 0.957.
Take ATGAAGAGAA: the switch fluorescence ratio came out at 1.03.
Consider GAAGTTCTGA, for which the switch fluorescence ratio turned out to be 0.966.
Next, CGTCGAGACC: 1; CGGAGCTGTT: 1.14.
The value for CTAAGATACG was 1.22; that for TATGTGGATA was 0.983; that for ACTAGGGGAA was 1.1.
The value for GGCCATAGCG was 0.983.
As to CAAAACCCGT, the switch fluorescence ratio was determined as 1.22.
The value for TGTGTCTGAA was 1.01; that for ATGGGGTGGA was 1.03; that for ACGCAGAAT was 1.19.
Next, ATATTGAGAG: 1.04; GGACCCCTTG: 0.976; ACTGGGTAG: 0.992.
In the case of TTGGAGCGT, the switch fluorescence ratio turned out to be 1.03.
Next, TTGCTTGGGT: 1.06.
As for AATTGGTTC, the switch fluorescence ratio worked out at 0.987.
ATCTTGTGTG: the switch fluorescence ratio was 0.961.
The value for TATACACCCG was 1.12; that for CTTCACGCCA was 1.43.
Next, AAAGCGCTGA: 1.03; GGAGATCCCG: 0.989; TCTGAAAC: 0.996.
On to GGAAGATGAG, for which the switch fluorescence ratio came out at 1.
Next, TCTCTGTGTG: 0.955.
The value for TGGAGAATG was 1.01; that for AAACTAGAT was 0.973.
Next, ACTAATGCCC: 0.98; CAGCGGCAGG: 1.05.
TAATTAGGCT: the switch fluorescence ratio was found to be 0.977.
The value for GCGGGCGAAC was 1; that for CAGGGGAGTA was 1.09.
Next, TCAAGGATGC: 0.984; ACGACGGTGC: 3.05; AGATGGTCCG: 1.02.
The value for ACCGTTAAGC was 1.12; that for AGATGTGACT was 0.983; that for GGCAGTTAGG was 1.04.
As to AATCGGAGGG, the switch fluorescence ratio turned out to be 0.98.
Turning to ACAGCTGTTC, the switch fluorescence ratio is 1.05.
TAAATAACGG: the switch fluorescence ratio came to 1.04.
The value for GACCACGGGA was 0.991.
The value for TACGGAGAAG was 0.994; that for GATTGAACGC was 1.01; that for AGGTCGTATG was 1.01.
The value for GTTCGGTATT was 0.994; that for TAGTATTTTA was 1.04.
For TCGTTGTCTT, the switch fluorescence ratio turned out to be 0.968.
The value for TTGCGTGCTA was 1.01.
With ATCAGGGTCC, the switch fluorescence ratio is 1.04.
The value for AGCGACAATT was 0.978; that for CGTCATGTAG was 0.99.
With ATTGCTGTCT, the switch fluorescence ratio worked out at 1.05.
Next, TTTCCGCGGG: 1.05.
The value for TCAGGGATAC was 2.11.
Next, ATCTTGTGCG: 0.988; GCGTATATTT: 1.05; TTATACCCGA: 1.07.
For the sequence TTGAATTAGG, the switch fluorescence ratio amounted to 0.984.
Next, GATAAAGGCT: 1.04.
Turning to CGCCTTAGGT, the switch fluorescence ratio was 1.02.
Next, CACGTCGGCA: 1.01; AAGTACCGGG: 1.11; TCACTATGAG: 1.05.
Next, AAAATAGCTA: 1.03.
The value for TTATCACTTT was 1.02; that for TAAGATGCTT was 0.973.
Turning to GGGTGAAGTA, the switch fluorescence ratio was found to be 0.96.
The value for CGATATCATT was 0.97; that for CCGTTTTGGG was 0.992; that for CGCATGATTA was 1.05.
Next, TGCAGTGTGA: 1; GAAGGGGCGT: 0.959.
On to TTGTAGCCC, for which the switch fluorescence ratio is 2.09.
The value for AGCAGCCA was 1.03; that for AGACTGTACG was 1.07; that for ACGTAGTCGT was 1.04.
Next, ACTTATTTG: 1.02; TGCAAGAAAG: 1.06; GATTACCATG: 1.01.
The value for TCAGCCTTCT was 0.939; that for ACTATTGCTT was 1.07; that for GGATAAAAC was 0.992.
For CGGTTATTAA, the switch fluorescence ratio worked out at 0.962.
Turning to CTCATATAAA, the switch fluorescence ratio came out at 0.964.
As to TTTACTCTGC, the switch fluorescence ratio stood at 1.38.
With ACGCTTGGAA, the switch fluorescence ratio stood at 1.04.
As for GCCGTGACCG, the switch fluorescence ratio was determined as 1.04.
The value for TGGATTTGGC was 1.03; that for CAATGACTCT was 1; that for AGTCTATTC was 0.991.
The value for CCTAGGCCGG was 1.
Next, ATGTGCCTGG: 1.03; ACTCCAGTTA: 1.14; CGGAGGGGT: 1.11.
For the sequence AACGGTGGAG, the switch fluorescence ratio was 0.988.
Next, CCCACTTAAC: 1.09; CTCTAGCTTC: 1.61.
Next, GTATACGTCG: 0.98; GTTGATTAGT: 0.996; GCTAGCAGC: 0.973.
The value for CCTGATTAGA was 0.996; that for GGCCTACTGG was 1.

The values above are taken from the supplement of paper PMC10126150.
